The other results are listed elsewhere or left out. The full chains were built here from the parent and the listed change. Inactive controls read about 0.05.
B1: TEV protease; numbered along this chain (parent)
chain: MGESLFKGPRDYNPISSSICHLTNESDGHTTSLYGIGFGPFIITNKHLFRRNNGTLVVQSLHGVFKVKDTTTLQQHLVDGRDMIIIRMPKDFPPFPQKLKFREPQREERICLVTTNFQTKSMSSMVSDTSCTFPSGDGIFWKHWIQTKDGQCGSPLVSTRDGFIVGIHSASNFTNTNNYFTSVPKNFMELLTNQEAQQWVSGWRLNADSVLWGGHKVFMVKPEEPFQPVKEATQL

Variants of: B1
Assay: raw area under fraction-flipped curve 0-4 h after induction (AUC4h, not background-subtracted), DNA-recorder readout of cleavage of the substrate (dimensionless); higher = more cleavage of the substrate by the protease variant
Settings: temperature: 34 °C; time window: 0-4 h after rhamnose induction
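Note: Bxb1 expression induced with 0.2% (w/v) L-rhamnose at OD600 near 0.5, cultures sampled hourly, flipped fraction per protease–substrate barcode pair counted by paired-end Illumina sequencing.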

| Variant | area with substrate ENLYFQI | area with substrate ENLYFQL | area with substrate ENLYFQM | area with substrate ENLYFQN | area with substrate ENLYFQP | area with substrate ENLYFQQ | area with substrate ENLYFQR | area with substrate ENLYFQS | area with substrate ENLYFQT | area with substrate ENLYFQV | area with substrate ENLYFQW | area with substrate ENLYFQG | area with substrate ENLYFQH | area with substrate ENLYFQK | area with substrate ENLYFQY | area with substrate ENLYFQF |
| --- | --- | --- | --- | --- | --- | --- | --- | --- | --- | --- | --- | --- | --- | --- | --- | --- |
| MGESLFKGPRDYNPISSSICHLTNESDGHTTSLYGIGFGPFIITNKHLFRRNNGTLVVQSLHGVFKVKDTTTLQQHLVDGRDMIIIRMPKDFPPFPQKLKFREPQREERICLVTTNFQTKSMSSMVSDTSCTFPSGDGIFWKHWIQTKDGQCGSPLVSTRDGFIVGIHSASNFTNTNNYFTSVPKNFMELLTNQEAQQWVSGWRLNADSVLWGGHKVHMVKPEEPFQPVKEATQL [F218H] | 0.0584 | 0.0539 | 0.0849 | 0.085 | 0.0484 | 0.065 | 0.0596 | 0.106 | 0.0595 | 0.0382 | 0.0615 | – | – | – | – | – |
| MGESLFKGPRDYNPISSSICHLTNESDGHTTSLYGIGFGPFIITNKHLFRRNNGTLVVQSLHGFFKVKDTTTLQQHLVDGRDMIIIRMPKDFPPFPQKLKFREPQREERICLVTTNFQTKSMSSMVSDTSCTFPSGDGIFWKHWIQTKDGQCGSPLVSTRDGFIVGIHSASNFTNTNNYFTSVPKNFMELLTNQEAQQWVSGWRLNADSVLWGGHKVFMVKPEEPFQPVKEATQL [V64F] | – | – | – | – | – | – | – | 0.104 | – | – | – | – | – | – | – | – |
| MGESLFKGPRDYNPISSSICHLTNESDGHTTSLYGIGFGPFIITNKHLFRRNNGTLVVQSLHGVFKVKDTTTLQQHLVDGRDMIIIRMPKDFPPFPQKLKFREPQREERICLVTTNFQTKSMSSLVSDTSCTFPSGDGIFWKHWIQTKDGQCGSPLVSTRDGFIVGIHSASNFTNTNNYFTSVPKNFMELLTNQEAQQWVSGWRLNADSVLWGGHKVFMVKPEEPFQPVKEATQL [M125L] | 0.0626 | – | 0.0823 | 0.0628 | 0.0614 | – | 0.0524 | 0.11 | 0.0676 | – | 0.0521 | 0.0952 | 0.0938 | 0.059 | 0.0659 | – |
| MGESLFKGPRDYNPISSSICHLTNESDGHTTSLYGIGFGPFIITNKHLFRRNNGTLVVQSLHGVFKVKDTTTLQQHLVDGRDMIIIRMPKDFPPFPQKLKFREPTREERICLVTTNFQTKSMSSMVSDTSCTFPSGDGIFWKHWIQTKDGQCGSPLVSTRDGFIVGIHSASNFTNTNNYFTSVPKNFMELLTNQEAQQWVSGWRLNADSVLWGGHKVFMVKPEEPFQPVKEATQL [Q105T] | 0.0611 | – | 0.0912 | – | – | – | 0.0268 | 0.102 | – | 0.0593 | 0.0705 | – | – | – | 0.0955 | – |
| MGESLFKGPRDYNPISSSICHLTNESDGHTTSLYGIGFGPFIITNKHLFRRNNGTLVVQSLHGVFKVKDTTTLQQHLVDGRDMIIIRMPKDFPPFPQKLKFREPQREERICLVTTNFQTKSMSSMVSDTSCTFPSGDGIFWKHWIQTKSGQCGSPLVSTRDGFIVGIHSASNFTNTNNYFTSVPKNFMELLTNQEAQQWVSGWRLNADSVLWGGHKVFMVKPEEPFQPVKEATQL [D149S] | – | – | 0.0691 | 0.0747 | – | – | 0.0619 | 0.0999 | 0.0586 | – | 0.0595 | 0.0709 | – | 0.0616 | – | 0.0759 |
| MGESLFKGPRDYNPISSSICHLTNESDGHTTSLYGIGFGPFIITNKHLFRRNNGTLVVQSNHGVFKVKDTTTLQQHLVDGRDMIIIRMPKDFPPFPQKLKFREPQREERICLVTTNFQTKSMSSMVSDTSCTFPSGDGIFWKHWIQTKDGQCGSPLVSTRDGFIVGIHSASNFTNTNNYFTSVPKNFMELLTNQEAQQWVSGWRLNADSVLWGGHKVFMVKPEEPFQPVKEATQL [L61N] | – | – | – | – | – | – | 0.0742 | 0.1 | – | – | – | 0.0917 | – | – | – | – |
| MGESLFKGPRDYNPISSSICHLTNESDGHTTSLYMIGFGPFIITNKHLFRRNNGTLVVQSLHGVFKVKDTTTLQQHLVDGRDMIIIRMPKDFPPFPQKLKFREPQREERICLVTTNFQTKSMSSMVSDTSCTFPSGDGIFWKHWIQTKDGQCGSPLVSTRDGFIVGIHSASNFTNTNNYFTSVPKNFMELLTNQEAQQWVSGWRLNADSVLWGGHKVFMVKPEEPFQPVKEATQL [G35M] | – | – | – | – | – | – | – | 0.0435 | – | – | – | – | – | – | – | – |
| MGESLFKGPRDYNPISSSICHLTNESDGHTTSLYLIGFGPFIITNKHLFRRNNGTLVVQSLHGVFKVKDTTTLQQHLVDGRDMIIIRMPKDFPPFPQKLKFREPQREERICLVTTNFQTKSMSSMVSDTSCTFPSGDGIFWKHWIQTKDGQCGSPLVSTRDGFIVGIHSASNFTNTNNYFTSVPKNFMELLTNQEAQQWVSGWRLNADSVLWGGHKVFMVKPEEPFQPVKEATQL [G35L] | – | 0.0413 | – | – | – | – | – | 0.0473 | 0.0509 | – | – | – | – | – | 0.0434 | – |
| MGESLFKGPRDYNPISSSICHLTNESDGHTTSLYGIGFGPFIITNKHLFRRNNGTLVVQSLHGVFKVKDTTTLQQHLVDGRDMIIIRMPKDFPPFPQKLKFREPQREERICLVTTNFQTKSMSSMVSDTSCTFPSGDQIFWKHWIQTKDGQCGSPLVSTRDGFIVGIHSASNFTNTNNYFTSVPKNFMELLTNQEAQQWVSGWRLNADSVLWGGHKVFMVKPEEPFQPVKEATQL [G138Q] | – | – | 0.0842 | 0.0663 | 0.0648 | – | 0.0471 | 0.0989 | 0.0576 | 0.0773 | – | – | – | – | – | – |
| MGESLFKGPRDYNPISSSICHLTNESDGHTTSLYGIGFGPFIITNKHLFRRNNGTLVVQSLHGVFKVKDTTTLQQHLVDGRDMIIIRMPKDFPPFPQKLTFREPQREERICLVTTNFQTKSMSSMVSDTSCTFPSGDGIFWKHWIQTKDGQCGSPLVSTRDGFIVGIHSASNFTNTNNYFTSVPKNFMELLTNQEAQQWVSGWRLNADSVLWGGHKVFMVKPEEPFQPVKEATQL [K100T] | 0.0516 | 0.061 | 0.0674 | – | – | – | 0.0505 | 0.108 | 0.0422 | 0.0348 | 0.103 | – | – | – | 0.0685 | 0.0636 |
| MGESLFKGPRDYNPISSSICHLTNESDGHTTSLYGIGFGPFIITNKHLFRRNNGTLVVQSLHGVFKVKDTTTLQQHLVDGRDMIIIRMPKDFPPFPQKLKFREPQREERICLVTTNFQTKSMSSMVSDTSCTFPSGDGIFWKHWIQTKDGQCGSPLVSTRDGFIVGIHSASNFTNTNNYFTSVPKNFMELLTNQEAQQWVSGWRLNADSVLWGGHKVFLVKPEEPFQPVKEATQL [M219L] | 0.0569 | – | 0.0803 | – | – | – | – | 0.0943 | 0.0638 | – | – | – | – | – | – | – |
| MGESLFKGPRDYNPISSSICHLTNESDGHTTSLYGIGFGPFIITNKHLFRRNNGTLVVQSLHGVFKVKDTTTLQQHLVDGRDMIIIRMPKDFPPFPQKLKFREPQREERICLVTTNFQTKSMSSMVSDTSCTFPSGDGIFWKHWIQTKDGQCGSPLVSTRDGFIVGIHSASNFTNTNNYFTSVPKNFMELLTNQEAQQWVSGWRLNADSVLWGVHKVFMVKPEEPFQPVKEATQL [G214V] | 0.0522 | – | 0.0667 | 0.0404 | – | – | 0.0558 | 0.0813 | – | 0.0614 | – | – | – | 0.0779 | – | – |
| MGESLFKGPRDYNPISSSICHLTNESDGHTTSLYGIGFGPFIITNKHLFRRNNGTLVVQSLHGVFKVKDTTTLQQHLVDGRDMIIIRMPKDFPPFPQKLKFREPQREERICLVTTNFQTKSMSSMVSDTSCTFPSGDGIFWKHWIQTKDGQCGSPLVSTRDGFIVGIHSASNFTNTNNYFTSVPKNFCELLTNQEAQQWVSGWRLNADSVLWGGHKVFMVKPEEPFQPVKEATQL [M188C] | – | 0.0538 | 0.0717 | 0.0847 | – | – | 0.0606 | 0.106 | 0.0317 | 0.0675 | 0.0673 | 0.0858 | 0.0503 | 0.0478 | 0.0894 | – |
| MGESLFKGPRDYNPISSSICHLTNESDGHTTSLYGIGFGPFIITNKHLFRRNNGTLVVQSLHGVFKVKDTTTLQQHLVDGRDMIIIRMPKDFPPFPQKLKFREPQREERICLVTTNFQTLSMSSMVSDTSCTFPSGDGIFWKHWIQTKDGQCGSPLVSTRDGFIVGIHSASNFTNTNNYFTSVPKNFMELLTNQEAQQWVSGWRLNADSVLWGGHKVFMVKPEEPFQPVKEATQL [K120L] | 0.0615 | – | – | 0.0784 | 0.0376 | – | 0.0613 | 0.096 | 0.0599 | 0.0608 | 0.0686 | – | 0.0707 | 0.0647 | – | – |
| MGESLFKGPRDYNPISSSICHLTNESDGHTTSLYGIGFGPFIITNKHLFRRNNGTLVVQSLHGVFKVKDTTTLQQHLVDGRDMIIIRMPKDFPPFPQKLKFREPQREERICLVTTNFFTKSMSSMVSDTSCTFPSGDGIFWKHWIQTKDGQCGSPLVSTRDGFIVGIHSASNFTNTNNYFTSVPKNFMELLTNQEAQQWVSGWRLNADSVLWGGHKVFMVKPEEPFQPVKEATQL [Q118F] | 0.0655 | 0.0599 | 0.0707 | 0.0565 | 0.0648 | – | 0.0669 | 0.097 | 0.0682 | – | 0.0632 | 0.11 | 0.0594 | 0.0493 | 0.0767 | – |
| MGESLFKGPRDYNPISSSICHLTNESDGHTTSLYGIGFGPFIITNKHLFRRNNGTLVVQSLHGVFKVKDTTTLQQHLVDGRDMIIIRMPKDFPPFPQKLKFREPQREERICLVTTNFQTKSMSSMVSDTSCTFPSGDGIFWKHWIQTKDGQCGSPLVSTRDGFIVGIHSASNFTNTNNYFTSVPKNFMELLTNSEAQQWVSGWRLNADSVLWGGHKVFMVKPEEPFQPVKEATQL [Q194S] | 0.0628 | 0.0609 | 0.108 | 0.0861 | – | – | 0.0412 | 0.108 | 0.0668 | 0.0583 | – | 0.201 | – | 0.0778 | – | – |
| MGESLFKGPRDYNPISSSICHLTNESDGHTTSLYGIGFGPFIITNKHLFRRNNGTLVVQSLHGVFKVKDTTTLQQHLVDGRDMIIIRMPKDFPPFPQKLKFREPQREERICLVTTNFQTKSMSSMVSDTSCTFPSGDGIFWKHWIQTKDGQCGSPLVSGRDGFIVGIHSASNFTNTNNYFTSVPKNFMELLTNQEAQQWVSGWRLNADSVLWGGHKVFMVKPEEPFQPVKEATQL [T159G] | 0.0491 | – | 0.0738 | 0.0811 | 0.0698 | – | 0.0666 | 0.11 | – | 0.033 | – | 0.103 | 0.0866 | 0.0356 | 0.0848 | 0.0931 |
| MGESLFKGPRDYNPISSSICHLTNESDGHTTSLYGIGFGPFIITNKHLFRRNNGTLVVQSLHGVFKVKDTTTLQQHLVDGRDMIIIRMPKDFPPFPQKLKFREPQREERICLVTTNFQTKSMSSMVSDTSCTFPSGDGIFWKHWIQTKDGQCGSPLVSTRDGFIVGIHSASNFTNTNNYFTSVPKNFMELLTNQEAQQWVSGWRLNADSVLWSGHKVFMVKPEEPFQPVKEATQL [G213S] | 0.053 | 0.048 | 0.0525 | 0.045 | – | – | 0.0544 | 0.0761 | 0.0524 | 0.0608 | – | – | 0.0646 | 0.061 | 0.0626 | – |
